# Measured values taken from the supplement of paper PMC3334620.
# Over roughly 33,000 sequences, “E-score (-0.5 to 0.5)” has its median near -0.041; the highest 2% begin near 0.37. Some of the results follow.
# Biological target: T1, Ecm22 (UniProt Q05958)
# T1 sequence: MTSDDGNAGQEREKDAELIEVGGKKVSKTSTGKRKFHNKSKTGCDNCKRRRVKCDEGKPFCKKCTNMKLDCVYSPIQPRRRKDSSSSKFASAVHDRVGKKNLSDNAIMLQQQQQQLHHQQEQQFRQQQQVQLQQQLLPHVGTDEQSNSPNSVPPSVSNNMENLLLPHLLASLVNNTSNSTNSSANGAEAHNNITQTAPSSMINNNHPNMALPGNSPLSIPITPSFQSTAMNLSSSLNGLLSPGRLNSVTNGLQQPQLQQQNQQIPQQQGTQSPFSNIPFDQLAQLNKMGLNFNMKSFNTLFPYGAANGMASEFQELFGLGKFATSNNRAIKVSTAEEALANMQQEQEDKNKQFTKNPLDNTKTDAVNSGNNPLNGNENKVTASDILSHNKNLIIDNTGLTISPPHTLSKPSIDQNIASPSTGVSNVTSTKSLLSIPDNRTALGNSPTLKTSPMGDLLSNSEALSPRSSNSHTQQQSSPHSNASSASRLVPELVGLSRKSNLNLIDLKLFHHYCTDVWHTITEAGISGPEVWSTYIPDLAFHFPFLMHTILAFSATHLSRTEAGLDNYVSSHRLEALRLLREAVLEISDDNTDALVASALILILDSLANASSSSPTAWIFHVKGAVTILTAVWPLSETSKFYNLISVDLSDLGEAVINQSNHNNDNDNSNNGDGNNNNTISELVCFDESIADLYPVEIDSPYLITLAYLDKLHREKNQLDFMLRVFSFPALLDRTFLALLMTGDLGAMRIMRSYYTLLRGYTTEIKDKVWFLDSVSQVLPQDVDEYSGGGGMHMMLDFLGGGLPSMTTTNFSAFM
# Assay: PBM E-score (8-mer binding enrichment) (E-score (-0.5 to 0.5)); higher = stronger / more preferred TF binding; most listed sequences are background and not binding sites
# Conditions: protein concentration: 200 nM; construct: GST-full length
# Method in brief: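 Full-length yeast transcription factors or their DNA-binding domains, GST-tagged and expressed with PURExpress, were applied at about 100-200 nM to universal all-10-mer Agilent arrays. These arrays had been made double-stranded by primer extension on fresh or once-stripped slides. Detection used fluorescent anti-GST, normalisation used masliner, and E-scores for ungapped eight-base words pooled with reverse complements came from the Universal PBM Analysis Suite.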
row,Sequence,PBM E-score
1,AGAGAATA,-0.204
2,AGTCGAGC,-0.134
3,AGTAATTC,-0.0252
4,AAACATTG,-0.147
5,CATATGTA,-0.0192
6,ACGCTACG,0.382
7,GACGTAGC,0.0751
8,CTGTCCTC,-0.227
9,GTATGTGA,0.107
10,CGTAAACA,0.385
11,GTCAGGTA,-0.0731
12,ATAGAGCA,-0.0337
13,CTTCATTA,-0.183
14,AGCTGACG,-0.151
15,TAGCTTCA,-0.247
16,CGACATGA,0.131
17,GGACCAAC,-0.195
18,AAATGGGC,-0.207
19,CGAGGTAC,0.347
20,TAGTGATA,-0.0351
21,CTACTTCC,0.0408
22,ATATTCTA,0.0553
23,GACATATA,0.186
24,TCAAACGA,0.452
25,AGGCCCCT,-0.278

row,Sequence,PBM E-score
1,CATTTTAC,0.222
2,ATTCATTC,0.129
3,CACGGACA,-0.169
4,TACTGCGA,0.136
5,GAGACTTA,-0.124
6,AGACATCC,-0.0743
7,AGCCATAA,-0.0779
8,AAGCGTAA,0.0353
9,CTCCATGA,-0.107
10,CTTATGCA,-0.0389
11,GTAAGTAC,0.193
12,AGGTTCTC,0.0993
13,CTTCGGCA,0.138
14,AGATTACC,-0.016
15,ACCAAATC,-0.151
16,CCACCCAC,-0.181
17,AGTGAGGC,-0.181
18,GCCTGCTA,-0.251
19,AGCACGAA,-0.0128
20,TAATTGCA,0.0349
21,ATCTGGCC,-0.211
22,GTCTTGTA,-0.00678
23,ATACCGCC,-0.0633
24,GTCTAGAC,-0.0216
25,CCTCCCAC,-0.119

row,Sequence,PBM E-score
1,TAATGGTA,0.0455
2,TAGTAACA,-0.0453
3,AAATTGTA,0.128
4,CCCCAAGA,-0.302
5,ACGAGTTA,0.422
6,GCAGCTTA,-0.157
7,CGCTATTC,0.0841
8,ATTGTATG,-0.0682
9,AATGCCTC,0.118
10,CAGCCGTC,-0.109
11,GATGACGC,0.117
12,AGTATTTG,-0.0191
13,AGAGCAAC,0.117
14,CGCATGGC,-0.0244
15,GAAAGACA,-0.0973
16,CGGCAATC,-0.00861
17,ACATACCA,-0.146
18,CTCATTCC,-0.315
19,GGTCGGGA,0.18
20,ATTGCGGG,-0.123
21,AACGTTAT,0.0997
22,ACGTAACT,-0.0711
23,CCGGATCG,0.1
24,AGCGCTAT,-0.048
25,AAGACCGA,0.214

row,Sequence,PBM E-score
1,CGTTCTGA,0.0774
2,GCAGTTCA,-0.108
3,CAGGTTTC,-0.122
4,AGAACTCG,0.0859
5,CCGGGTTA,0.0418
6,AGTCACGA,-0.0157
7,CGTTACTA,0.117
8,CTCTCACA,-0.318
9,CCGGAGGC,-0.175
10,GTGTGCCA,-0.0883
11,AAGCGCTC,0.00471
12,CTGTGAGA,-0.33
13,ATTCCTAC,-0.131
14,ATTATCCG,0.212
15,AAGTCAAT,-0.121
16,CAAAGAAA,0.0868
17,TTCCGGAA,-0.0556
18,GACTGACA,-0.208
19,GACTCTCC,0.0568
20,AAATCCGT,0.00949
21,AAGCTACT,0.084
22,ATTCGGTG,0.0584
23,AGAGTCCA,-0.184
24,CTACCGGC,-0.318
25,ACCTTGCG,0.0236

row,Sequence,PBM E-score
1,CGTGCTCC,-0.0174
2,GCTCCATA,-0.0352
3,GGGAGTCA,-0.28
4,ATTATCGG,0.163
5,ACCCCGGG,-0.0989
6,GACAGAAC,0.0871
7,ATAACCAT,0.0281
8,CTGCAAGA,-0.0557
9,ACCCCATG,-0.251
10,ACAGTTTG,-0.147
11,AAGCTAAA,-0.0783
12,CAGTTGCG,-0.0105
13,AGCGGGCA,-0.0923
14,CGGTCACC,0.0101
15,ATTTTGAG,-0.139
16,ACTGTACG,0.42
17,CAAATGGA,0.0128
18,CAAGCCAG,-0.21
19,AGCCTATC,-0.152
20,CGAGCCAG,0.232
21,CCGTACAA,0.4
22,ATAACGTG,-0.0623
23,ACACTGGT,-0.0766
24,AATCCACC,-0.063
25,CACTAGCC,-0.131

row,Sequence,PBM E-score
1,ATGTGCAA,0.00963
2,ATATGAAG,-0.151
3,CACAAAAA,-0.0358
4,ATGTCGCC,0.0464
5,AAAGTTAG,-0.0323
6,GCTGGTTA,-0.132
7,CATACCAG,-0.0569
8,TAAGTAAA,0.0259
9,AGGAAATG,-0.11
10,AACAGCTC,-0.0746
11,GCGCCCCA,-0.158
12,AACCGCCT,0.029
13,AGCAGGTG,-0.226
14,ACGATTAT,0.306
15,ACGACCTG,0.32
16,CCCACACA,-0.218
17,TAAGCCGA,0.15
18,AAGTGAGC,-0.109
19,GGGGATGA,-0.225
20,ACTTCTGA,-0.348
21,CAAACAAC,0.0325
22,ATAAACCC,-0.0127
23,GTAAGCTA,-0.0496
24,ACTACCTC,-0.147
25,GACAACGC,-0.0105

row,Sequence,PBM E-score
1,AAGAATCG,0.185
2,CCTGATGA,-0.0201
3,ACTTCGTA,0.434
4,AGCGTCAG,-0.246
5,ACTTACCC,-0.0323
6,CTCTTTGA,-0.189
7,ACCTCGCG,0.26
8,ATCAATTG,0.112
9,GCCACCCA,-0.285
10,ATGAAGGA,-0.0112
11,CCGTTGCA,0.0122
12,GTTATGAA,0.0485
13,CAATTGAA,-0.0626
14,ACGTGCAG,-0.0501
15,CGCTGAAG,-0.00934
16,ACCTACCG,-6e-05
17,AACTCCTT,-0.0269
18,GAGTCATC,-0.104
19,CTGGATGC,-0.159
20,GCGAAAGA,0.1
21,AGCGAAAT,0.16
22,GAATACAA,0.118
23,GACAAAAA,0.0341
24,CGTTGCGC,0.347
25,ATTGGCTC,-0.013

row,Sequence,PBM E-score
1,CGAAGGTC,0.259
2,ATCGGGGG,-0.184
3,ACGCCCTC,0.0597
4,GGGGAGTA,-0.161
5,ATACTTGG,-0.13
6,ATCTATGG,-0.0718
7,AATGGGTG,-0.06
8,ACGAGACA,0.315
9,AAAGGCCG,0.0814
10,GTGTCAAA,-0.0701
11,ATGAATTA,0.0701
12,CCTACGTC,-0.0362
13,CATTAACC,-0.0348
14,ATCAGTCG,-0.00885
15,ACTGTTCT,-0.065
16,ATTCACTC,-0.0367
17,AAAACCAA,-0.0224
18,CATTCCCG,0.0847
19,CAGTACAA,-0.0343
20,AAAAGCTT,-0.112
21,ACATGTCC,-0.0399
22,AATCTCAC,0.0359
23,GTACGGGA,0.419
24,GGCAGTAC,-0.0784
25,CCATTGGG,-0.127

row,Sequence,PBM E-score
1,ATTTCAAG,-0.244
2,GCCGGTAC,0.129
3,AAGAGAGA,-0.165
4,GCGCATCC,-0.0943
5,GTATACAA,0.161
6,AATTCCAG,-0.122
7,AATTTAAG,0.037
8,CATCCTCA,-0.113
9,CAGTGATA,-0.0517
10,ATAGCTAA,-0.209
11,ATGGCTAA,-0.0821
12,AAACGCGG,0.164
13,GGATGTAC,0.168
14,AAGATTCT,-0.263
15,GTTCACGA,0.205
16,CTCTACAG,-0.0754
17,CAGTTCTA,-0.0486
18,AGCGACCA,0.144
19,ATTAAGCC,-0.0618
